# Measured values published in PubChem BioAssay AID588855 (National Center for Advancing Translational Sciences (NCATS), 2011).
# Where “and” joins values, the source holds several entries; their conditions need not be identical. Identical values can stand only once. In all, about 410,000 compounds went through this assay and about 5,000 (1.2%) were called active. The shares of active, inactive and inconclusive entries below differ from those in the screen. Calls come from the whole dose curve; as a rule, active = well fitted inhibition curve with a large enough effect; inconclusive = small, poorly fitted or top-dose-only effect; inactive = no such curve, though single readings can be large or run the other way. Potencies beside an inconclusive call are fits to weak or partial responses and may not hold up.
# Test: qHTS for Inhibitors of TGF-b; note: nearly all actives have a fitted effect of over 65% in size
# Conditions: HepG2 CAGA-GFP TGF-b/SMAD3 reporter, GFP fluorescence, 18 h, TGF-beta stimulated, 500 pg/mL final; series mostly up to 46.1 µM; activity, negative = inhibition: at the top concentration
# How it was run: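 HEPG2 CAGA-GFP, 1000 cells/well; 2 h settle, 37 C; cpd via pin tool; TGF-b 500 pg/mL final; 18 h, 37 C; GFP imaging ex488/em500-530; %Activity normalised to -TGF-b and +DMSO controls; CRC fit, curve class.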
# % is set by controls: 0 for no effect and ±100 for the full control effect; potency is the fitted concentration of half-maximal effect; tags give direction and shape of the fitted curve.
SMILES,Potency,"activity, negative = inhibition"
O=C(Cn1c(-c2cccs2)cc2ccccc21)NCCCN1CCN(c2ccccc2F)CC1,"inconclusive: 12.6 µM [inhibitor, partial curve, poor fit]",–
CCc1cccc(CC)c1NC(=O)COC(=O)c1ccccc1-c1nc2ccccc2s1,"inconclusive: 17.8 µM [inhibitor, single point]",–
COc1cccc(NC(=S)N2CCCC2)c1,–,inactive: -9.05%
O=C(CSc1n[nH]c(=O)n1-c1ccccc1)N1CCOCC1,–,inactive: 5.75%
O=C(NC1CC2CCCC(C1)N2C(=O)Nc1cccc(F)c1)C1CC1 (stereo not given),–,inactive: -3.95%
COc1ccc(NC(=O)Nc2nnc(N(CC(C)C)CC(C)C)s2)c(OC)c1,"inconclusive: 22.4 µM [inhibitor, single point]",–
O=C(O)C1CCN(S(=O)(=O)c2ccc(Cl)s2)CC1,–,inactive: 14.2%
COc1ccc(NC(=O)c2cc(C3CC3)nc3c2c(C)nn3-c2ccccc2)cc1OC,"inconclusive: 35.5 µM [inhibitor, single point]",–
Cc1ncn(-c2ccccc2)c1-c1ccccc1,–,inactive: -24.5%
C/C(=N\NC(=O)C1CCCC1)c1ccc(Cl)cc1Cl,–,inactive: 24.2%
Cc1nc(C)c(Oc2cccc(C(F)(F)F)c2)c(=O)[nH]1,–,inactive: 0.553%
CCCC(C)C(=O)Nc1nc(C)c(-c2csc(Nc3cc(OC)ccc3OC)n2)s1 (stereo not given),–,inactive: 4.04%
CCOC(=O)CSc1nnc([C@@H](NC(=O)OC(C)(C)C)C(C)C)o1,"inconclusive: 35.5 µM [inhibitor, single point]",–
Cc1ccc(NS(=O)(=O)c2ccc(-c3cc(C)no3)cc2)c(Br)c1,"inconclusive: 28.2 µM [inhibitor, single point]",–
Cc1ccc(CCNC(=O)c2c(C)nn(-c3ccc(F)cc3)c2-n2cccc2)cc1,"inconclusive: 35.5 µM [inhibitor, single point]",–
O=C(CCS(=O)(=O)c1cccc2nonc12)Nc1ccc(Br)cc1,inactive,–
CC1=C(C(=O)Nc2ccccc2)C(c2ccc(O)cc2)n2nc(SCc3ccccc3)nc2N1 (stereo not given),–,inactive: 5.28%
Cc1cccc(C(=O)OCC(=O)c2ccc3c(c2)OCO3)c1O,"inconclusive: 35.5 µM [inhibitor, single point]",–
O=C(NC1CCCC1)C(c1ccncc1)N(Cc1ccccc1)C(=O)c1ccc(-c2ccccc2)[nH]1 (stereo not given),"inconclusive: 20 µM [inhibitor, single point]",–
C#CCN(C(=O)c1ccc(OC2CCN(C(=O)CCOC)CC2)cc1)C1CCCCC1,–,inactive: -29.8%
CNc1ccc(C=C2c3ccccc3-c3ccccc32)cc1,"inconclusive: 22.4 µM [inhibitor, single point]",–
Cc1ccc(/C(O)=C/c2nc3ccccc3oc2=O)cc1,"inconclusive: 10 µM [inhibitor, partial curve, poor fit]",–
Cc1ccc(-n2nnnc2SCC(=O)Nc2ccc(N3CCN(C)CC3)cc2)c(C)c1,"inconclusive: 35.5 µM [inhibitor, single point]",–
Cc1ccccc1C(=O)Oc1ccc(Cl)cc1C(=S)N1CCOCC1,"inconclusive: 2.82 µM [inhibitor, single point]",–
Cc1ccc(-n2c(C)cc(C(=O)OCC(=O)N3CCOCC3)c2C)cc1,–,inactive: -3.98%

SMILES,Potency,"activity, negative = inhibition"
FC(F)(F)c1cnc(-c2cnc(-c3ccccn3)nc2)c(Cl)c1,"inconclusive: 1.41 µM [inhibitor, partial curve, poor fit]",–
N#Cc1c[nH]n2c(NC3CCCC3)c(-c3ccc(Cl)cc3)nc12,"inconclusive: 25.1 µM [inhibitor, single point]",–
O=C(Nc1cccc(NC(=O)c2ccccc2Cl)c1)c1cccs1,"inconclusive: 0.316 µM [inhibitor, full curve, poor fit]",–
COc1cccc(NC(=O)c2ccccc2NS(C)(=O)=O)c1,–,inactive: -17.5%
O=C(CCC(=O)c1ccc(Br)cc1)Nc1cccnc1,–,inactive: 2.8%
CCCCOC(=O)C(C#N)c1nc2ccccc2nc1N1CCOCC1 (stereo not given),–,inactive: -18.4%
CCOC(=O)c1ccccc1NC(=O)CSc1nc2ccccc2c(=O)n1CCCN1CCOCC1,–,inactive: -14.4%
CCc1ncc(C(O)c2ccc(Cl)cc2)n1Cc1ccccc1 (stereo not given),"inconclusive: 25.1 µM [inhibitor, single point]",–
C#CCOCCOCCOCCNc1nc(N2CCOCC2)nc(N2CCN(C(=O)[C@H](CCCN=C(N)N)n3cc(C(N)[C@@H](C)CC)nn3)CC2)n1 (stereo not given in full),"inconclusive: 15.8 µM [inhibitor, single point]",–
COc1ccc(CNC(=O)C2CC(C)=C(C)CC2C(=O)O)cc1OC (stereo not given),–,inactive: -1.12%
COC(=O)c1sccc1-c1ccc(C(=O)Nc2ccccc2)o1,–,inactive: 1.56%
Cn1cccc1C(=O)Nc1nc(-c2ccccn2)cs1,–,inactive: -12.8%
Cc1cc(NC(=O)C2CCCN(S(=O)(=O)c3cccc4nsnc34)C2)ccc1Br (stereo not given),–,inactive: -39.3%
CC1CC(c2ccccc2)n2nc(NC(=O)c3ccco3)nc2N1 (stereo not given),–,inactive: -15.4%
COc1ccc(N2C(=O)C3C(C2=O)C(C(=O)c2ccccc2)N2CCCC32)cc1 (stereo not given),"inconclusive: 14.1 µM [inhibitor, single point]",–
Cc1nc2c(ccc3nc(NC(=O)C(c4ccccc4)c4ccccc4)sc32)s1,"inconclusive: 3.16 µM [inhibitor, partial curve, poor fit]",–
COc1cccc(Nc2nc(-c3sc(NC(=O)CC(C)C)nc3C)cs2)c1,–,inactive: -5.07%
CCOC(=O)N1CCN(S(=O)(=O)c2ccc(OCC)c(C)c2)CC1,–,inactive: -18.8%
CCOc1ccccc1NC(=O)c1c(NC(=O)Cc2ccc(OC)cc2)sc2c1CCC2,"inconclusive: 11.2 µM [inhibitor, partial curve, poor fit]",–
CCc1cccc(NC(=O)c2ccc3c(c2)c(C)c(C)n3Cc2ccc(F)cc2)c1,"inconclusive: 0.0891 µM [inhibitor, full curve, poor fit]",–
Cc1ccc(OCC(=O)Nc2cccc(C(=O)OCc3cc(=O)n4c(C)csc4n3)c2)cc1,"inconclusive: 35.5 µM [inhibitor, single point]",–
CCNc1oc(/C=C/c2ccc(OCC)cc2)nc1C#N,"inconclusive: 35.5 µM [inhibitor, single point]",–
Cc1cc(C(=O)Nc2c(C)nn(Cc3ccccc3)c2C)on1,"inconclusive: 1.41 µM [inhibitor, partial curve]",–
C=CCn1c(-c2ccoc2)n[nH]c1=S,–,inactive: -14.9%
O=C(c1ccc(Br)c(S(=O)(=O)N2CCOCC2)c1)N1CCN(C/C=C/c2ccccc2)CC1,"inconclusive: 11.2 µM [inhibitor, partial curve, poor fit]",–

SMILES,Potency,"activity, negative = inhibition"
CCc1nc2ccc(C(=O)NCCN3CCOCC3)cn2c1N(C)Cc1ccc(OC)cc1,–,inactive: 4.01%
Cc1ccc(-c2cn(-c3ccccc3)c(SCC(N)=O)n2)cc1C,"inconclusive: 15.8 µM [inhibitor, single point]",–
COC(=O)c1ccc([C@H](NC(=O)c2ccco2)[C@]2(C)C[C@H]2C2CCCCC2)cc1,"inconclusive: 35.5 µM [inhibitor, single point]",–
Cc1ccc(NS(=O)(=O)c2cccc3cccnc23)cc1Cl,"inconclusive: 35.5 µM [inhibitor, single point]",–
CCC1Sc2ccc(S(=O)(=O)CCC(=O)Nc3ccc(OC(F)(F)F)cc3)cc2NC1=O (stereo not given),"inconclusive: 15.8 µM [inhibitor, partial curve, poor fit]",–
COC(=O)c1ccccc1NCCO,–,inactive: -19%
CCCCNC(=O)c1cccc(S(=O)(=O)N2CC3(C)CC2CC(C)(C)C3)c1 (stereo not given),"inconclusive: 15.8 µM [inhibitor, single point]",–
CCCCOc1ccc(NC(=O)C(=O)NCCCn2ccnc2)cc1,–,inactive: -16.5%
C=CC(=O)Nc1cccc(Oc2ccnc(Nc3ccc(N4CCN(C)CC4)cc3)n2)c1,active: 12.6 µM,–
O=[N+]([O-])c1ccccc1S(=O)(=O)Nc1cccc2cccnc12,active: 1.26 µM and active: 6.31 µM,–
CCCNC(=S)Nc1ccc(S(N)(=O)=O)cc1,–,inactive: 7.01%
CCOc1ccc(N(Cc2ccc(OC)cc2)C(=O)c2ccco2)cc1,–,inactive: -25.6%
CC1=NN(c2ccc(Cl)cc2)C(=O)C1,"inconclusive: 17.8 µM [inhibitor, single point]",–
Cc1c(NS(=O)(=O)c2cccc(C(=O)OCC(=O)c3ccc(Cl)cc3)c2)c(=O)n(-c2ccccc2)n1C,–,inactive: -1.18%
COc1ccc(-n2nc3c(N4CCCC(C(=O)NCCc5ccccc5C)C4)nnc(C)c3c2C)cc1 (stereo not given),"inconclusive: 35.5 µM [inhibitor, single point]",–
COc1ccc(NC(=O)CN(C)CC(=O)Nc2ccc(C)c(S(=O)(=O)N3CCCCC3)c2)cc1,"inconclusive: 35.5 µM [inhibitor, single point]",–
COc1cccc(C(=O)N/N=C(/c2ccccc2)c2ccccn2)c1,"inconclusive: 6.31 µM [inhibitor, single point]",–
O=C(C1CCC1)N1CCc2cc(S(=O)(=O)NC3CCCC3)ccc21,–,inactive: 15.8%
O=C(CN1CCCC1)Nc1nc(-c2ccc(Cl)cc2)cs1,–,inactive: 0.839%
Cc1cc(NC(=O)Nc2cc(F)ccc2F)no1,"inconclusive: 35.5 µM [inhibitor, single point]",–
COC(=O)c1ccccc1NCC(=O)c1ccc(OC)cc1,"inconclusive: 22.4 µM [inhibitor, single point]",–
O=C1N(Cc2ccccc2)c2ccccc2C1(O)c1c[nH]c2ccccc12 (stereo not given),–,inactive: -21%
O=C(CCl)NCCCCCCCCCNC(=O)CCl,"inconclusive: 20 µM [inhibitor, single point]",–
S=C(Nc1ccccc1)Nc1ccc(Br)cc1,"inconclusive: 17.8 µM [inhibitor, single point]",–
COc1cc(CN2CCCC(CO)(Cc3cccc(Cl)c3)C2)cc2c1OCO2 (stereo not given),"inconclusive: 35.5 µM [inhibitor, partial curve, poor fit]",–
